Assay results reported in PubChem BioAssay AID2676 (National Center for Advancing Translational Sciences (NCATS), 2010).
About 1,100 (0.3%) of roughly 370,000 compounds were called active. Inconclusive results, whose numbers are uncertain, are shown with a selection of clear calls. Calls follow the shape of the dose curve; as a rule, active = well fitted activation curve with a large enough effect; inconclusive = small, poorly fitted or top-dose-only effect; inactive = flat fitted curve, though single readings scatter. Potencies beside an inconclusive call are fits to weak or partial responses and may not hold up.

Molecular target: Relaxin receptor 1 (Homo sapiens) (UniProt Q9HBX9)
Experiment: qHTS Assay for Agonists of the Relaxin Receptor RXFP1; also: nearly all actives have a fitted effect of over 60% in size
Conditions: HEK293T-RXFP1 cAMP TR-FRET, 30 min; series mostly up to 57.5 µM
In short: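 HEK293 cells stably expressing RXFP1, treated 30 min at 37C with compounds plus PDE4 inhibitor Ro 20174; cAMP measured by HTRF TR-FRET. Normalized to buffer and 29 nM porcine relaxin; EC50 by Hill fit.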
Potency is read from the fitted curve at half-maximal effect; tags tell the direction and shape of the fitted curve.

Chain of UniProt Q9HBX9 (Q9HBX9 whole entry, looked up): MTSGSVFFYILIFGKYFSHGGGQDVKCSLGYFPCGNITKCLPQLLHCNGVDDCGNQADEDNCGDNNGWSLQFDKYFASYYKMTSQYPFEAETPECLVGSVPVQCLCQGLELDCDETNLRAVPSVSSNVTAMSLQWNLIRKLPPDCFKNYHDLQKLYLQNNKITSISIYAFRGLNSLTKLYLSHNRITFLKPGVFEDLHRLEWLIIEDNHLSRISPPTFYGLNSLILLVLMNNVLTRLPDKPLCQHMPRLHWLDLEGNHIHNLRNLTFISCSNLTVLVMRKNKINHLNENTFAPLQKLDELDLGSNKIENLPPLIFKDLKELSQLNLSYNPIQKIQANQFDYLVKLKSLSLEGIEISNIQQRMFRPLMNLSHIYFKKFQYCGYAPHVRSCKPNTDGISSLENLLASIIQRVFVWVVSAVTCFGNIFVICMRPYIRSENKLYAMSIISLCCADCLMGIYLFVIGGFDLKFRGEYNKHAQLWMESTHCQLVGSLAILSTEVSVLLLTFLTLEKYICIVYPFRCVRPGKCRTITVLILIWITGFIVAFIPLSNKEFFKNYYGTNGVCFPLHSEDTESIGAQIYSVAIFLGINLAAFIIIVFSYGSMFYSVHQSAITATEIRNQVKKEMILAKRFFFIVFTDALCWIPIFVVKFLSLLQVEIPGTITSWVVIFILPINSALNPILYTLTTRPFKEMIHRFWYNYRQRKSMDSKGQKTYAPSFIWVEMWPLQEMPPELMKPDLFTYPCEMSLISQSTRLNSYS

SMILES | Potency
N#CCSc1nc2[nH]ncc2c(=O)n1-c1ccccc1Br | inactive
Cc1ccc(C(=O)Nc2ccc(-c3nc4ccccc4s3)c(O)c2)c(C)c1 | inconclusive: 14.1 µM [activator, partial curve]
CC(C)OC(=O)CC1C(=O)NCCN1C(=S)NC(=O)c1ccccc1 (centres undefined) | inactive
CCCOC(=O)CSc1nc(N)c(C#N)c(CC)c1C#N | inconclusive: 35.5 µM [activator, single point]
CCN(Cc1ccccc1)C(=O)Cn1c(=O)n(Cc2ccccc2)c(=O)c2c1c1cc(OC)ccc1n2C | inconclusive: 28.2 µM [activator, single point]
O=C(Nc1ccccc1C(=O)O)c1ccc(NC(=O)C2CC2)cc1 | inconclusive: 28.2 µM [activator, partial curve]
CCOC(=O)c1sc2ccccc2c1S(=O)(=O)Nc1cccc(C(F)(F)F)c1 | inactive
COc1ccc(-c2nnc(SCC(=O)Oc3c(C)cccc3C)o2)cc1OC | inactive
O=C(CCc1nnc2ccc(N3CCC4(CC3)OCCO4)nn12)NCc1ccc(F)cc1 | active: 15.8 µM
Cc1ccc(NC(=O)c2ccccc2-c2ccccc2C(=O)O)cc1 | inactive
CCOC(=O)c1cc2occc2n1CC(=O)N1CCCc2ccccc21 | inactive
COc1cc(NC(=O)CCc2c(C)nc3nc(-c4cc(OC)cc(OC)c4)nn3c2C)cc(OC)c1 | inactive
Cc1ccc(S(=O)(=O)c2nc(-c3ccco3)oc2SC(C)c2ccccc2)cc1 (centres undefined) | inactive
O=C(Nc1ccccc1)[C@@H]1[C@@H]2C(=O)N(c3ccc(F)cc3)C(=O)[C@@H]2[C@H]2C=CC=NN21 | inactive
N#Cc1c(-c2ccco2)nc(SCC(=O)Nc2cccc(Cl)c2)[nH]c1=O | inconclusive: 15.8 µM [activator, partial curve]
O=C1CC2C(=O)NCCN2C(=NC(=O)c2ccc(Cl)cc2)N1 (centres undefined) | inconclusive: 25.1 µM [activator, partial curve]
O=C(NC1CCCCC1)c1cc(Nc2ccccc2)nc2ccccc12 | inconclusive: 39.8 µM [activator, single point]
COCc1cc(C)nc(SCC(=O)NC2CCCCC2C)c1C#N (centres undefined) | inconclusive: 39.8 µM [activator, single point]
Cc1ccccc1NC(=O)c1sc2nc(N3CCOCC3)c3c(c2c1N)CCCC3 | inconclusive: 28.2 µM [activator, partial curve]
O=C(Oc1cccc(NC(=O)c2ccccc2Cl)c1)c1ccc([N+](=O)[O-])cc1 | inactive
COc1ccccc1/C=C/CN1CCCC(CO)(CCc2ccccc2)C1 (centres undefined) | inactive
CN(C)S(=O)(=O)c1cccc(C(=O)OCC(=O)c2c(N)n(C)c(=O)n(C)c2=O)c1 | inconclusive: 17.8 µM [activator, partial curve]
CCCCc1nn2c(=O)cc(COC(=O)c3cccc(NC(=O)c4cccs4)c3)nc2s1 | inactive

SMILES | Potency
CN(C)c1nc(-c2cccnc2)nc(-c2ccccc2)c1C#N | inconclusive: 39.8 µM [activator, single point]
CCOc1ccc2c(c1)c(=O)c(C(=O)c1ccccc1)cn2Cc1ccccc1F | inconclusive: 35.5 µM [activator, single point]
CNC(=O)C1CCCN(c2nnc(C)c3c(C)n(-c4ccccc4)nc23)C1 (centres undefined) | inconclusive: 14.1 µM [activator, partial curve]
O=C(NCC1CCCO1)c1cc(-c2ccccc2)nc2ccc(Br)cc12 (centres undefined) | inconclusive: 25.1 µM [activator, partial curve]
CCOc1ccc(S(=O)(=O)Nc2nc3ccccc3nc2Cl)cc1 | inconclusive: 28.2 µM [activator, single point]
COc1ccc(-n2nc3c(N4CCC(C(=O)NCc5ccccc5)CC4)nnc(C)c3c2C)cc1 | inconclusive: 25.1 µM [activator, single point]
O=C1CN(C(=O)c2cccc(Br)c2)C(c2ccccc2)c2cc(Cl)ccc2N1 (centres undefined) | inactive
COCCNS(=O)(=O)c1cc(-c2nn3c(C)nnc3c3ccccc23)ccc1C | inconclusive: 25.1 µM [activator, partial curve]
N/C(=N\OCc1ccc([N+](=O)[O-])cc1)c1ccccn1 | inactive
Cc1cc(C)c2oc(C(=O)NCCc3ccc(S(N)(=O)=O)cc3)cc(=O)c2c1 | inconclusive: 35.5 µM [activator, single point]
COC(=O)c1c(NC(C)=O)sc(C(=O)Nc2ccccc2C)c1C | inconclusive: 35.5 µM [activator, single point]
CCOCCn1c(CN2CCN(C(=O)c3ccco3)CC2)nc2c1c(=O)n(C)c(=O)n2C | inconclusive: 31.6 µM [activator, partial curve]
Cc1ccc(NS(=O)(=O)c2ccc3c(c2)CCN3C(=O)C2CC2)c(C)c1 | inactive
C=C(C)Cn1c(SCC(=O)c2ccc(Br)cc2)nc2sc3c(c2c1=O)CCCC3 | inconclusive: 35.5 µM [activator, single point]
c1ccc(CN2CCC(Nc3nc(-c4cccs4)nc4ccccc34)CC2)cc1 | inactive
COc1ccc(C2C(C(C)=O)=C(O)C(=O)N2c2ccc(C)cc2)cc1 (centres undefined) | inconclusive: 20 µM [activator, partial curve]
O=C(Nc1cccnc1)c1cc(-c2ccc(Cl)cc2Cl)on1 | inconclusive: 31.6 µM [activator, single point]
COc1ccc(OC)c(CCNC(=O)CCCn2c(=O)c3cccn3c3cccnc32)c1 | inconclusive: 39.8 µM [activator, single point]
Nc1ccc(-c2nc3cc(N)ccc3o2)cc1 | inconclusive: 28.2 µM [activator, partial curve]
CCOc1ncccc1C(=O)Nc1ccc(S(=O)(=O)N2CCCC2)cc1 | inconclusive: 35.5 µM [activator, single point]
Cc1c(C)c(C)c2[nH]c(=S)[nH]c2c1C | inconclusive: 39.8 µM [activator, single point]
CCOC(=O)N1CCC(NC(=O)CCS(=O)(=O)c2ccc3c(c2)CCN3C(=O)CC)CC1 | inactive
CCSc1nnc(NC(=O)c2cc(=O)c3cc(C)ccc3o2)s1 | inactive

SMILES | Potency
O=C(CCN1C(=O)c2ccccc2Sc2ncccc21)Nc1ccc(F)cc1 | inactive
CCOC(=O)c1ccc(NC(=O)c2oc3c(c2C)-c2nn(Cc4ccccc4Cl)cc2CC3)cc1 | inconclusive: 25.1 µM [activator, single point]
CN1C(=O)c2ccc(C(=O)Nc3ccc(Br)cn3)cc2C1=O | inconclusive: 6.31 µM [activator, single point]
O=C(CN1C(=O)C2(SCC(=O)N2c2ccc(F)cc2)c2ccccc21)NC1CCCCC1 (centres undefined) | inactive
COc1ccc(CCNc2oc(Cc3cccc4ccccc34)nc2C#N)cc1OC | inactive
Cc1cc(C(=O)CSc2nc3ccccc3c(=O)n2C)c(C)n1Cc1ccc2c(c1)OCO2 | active: 20 µM
O=C(Nc1cccc2c1C(=O)NC2=O)c1cccnc1Cl | inconclusive: 39.8 µM [activator, single point]
N#CCC(=O)N/N=C/c1ccc(N2N=C(c3ccccc3)CC2c2ccccc2)cc1 (centres undefined) | inconclusive: 25.1 µM [activator, partial curve]
Cc1ccc(Cl)cc1NC(=O)CCCN1C(=O)c2cccnc2C1=O | inconclusive: 28.2 µM [activator, partial curve]
Cc1ccc(NC(=O)CSc2nc3ccccc3c(=O)n2CCC(=O)NC2CCCCC2)cc1C | inconclusive: 35.5 µM [activator, single point]
CC(C)Nc1nc2c(S(=O)(=O)c3cccc(Cl)c3)nnn2c2ccsc12 | inconclusive: 39.8 µM [activator, single point]
CN(C)S(=O)(=O)c1ccc(C(=O)OCCn2cnc3c2c(=O)n(C)c(=O)n3C)cc1 | inconclusive: 15.8 µM [activator, partial curve]
COc1ccc(C2CC(=O)c3cnc4c(-c5ccc(F)cc5)c(C)nn4c3C2)cc1OC (centres undefined) | inconclusive: 39.8 µM [activator, single point]
CC1=C(c2ccc(C)c(C)c2)S(=O)(=O)N=C1N1CCC(C(=O)NCc2ccccc2C)CC1 | inconclusive: 35.5 µM [activator, single point]
CC(=O)NCCNC(=O)c1ccc(Sc2ccccc2)c([N+](=O)[O-])c1 | inactive
COC(=O)/C=C1\N/C(=N\c2nc(C)cc(C)n2)N(c2ccccc2)C1=O | inactive
COc1ccc(-n2nnc(-c3nsc(NC(=O)c4cccc(C)c4)n3)c2C)cc1OC | inconclusive: 39.8 µM [activator, single point]
CCOCCCn1c(SCC(=O)NCc2ccccc2)nc2c(sc3ccccc32)c1=O | inconclusive: 39.8 µM [activator, single point]
COc1cc([N+](=O)[O-])ccc1NC(=O)N1CCC2(CC1)Nc1ccccc1-n1cccc12 | inactive
CCn1cc(C(=O)NCCN(CC(C)C)CC(C)C)c(=O)c2cc(S(=O)(=O)N(C)C3CCCCC3)ccc21 | inactive
COc1cc(C2/C(=C(\O)c3ccc4c(c3)CC(C)O4)C(=O)C(=O)N2c2nnc(C)s2)cc(OC)c1OC (centres undefined) | inconclusive: 31.6 µM [activator, partial curve]
CN(CC(O)Cn1cnc2c1c(=O)n(C)c(=O)n2C)c1ccccc1 (centres undefined) | inconclusive: 15.8 µM [activator, partial curve]
CCN1CCN(c2nc3c(S(=O)(=O)c4ccc(C)cc4)nnn3c3ccsc23)CC1 | inconclusive: 28.2 µM [activator, partial curve]
